Data reported in PMC4336329 (PLoS ONE, 2015).
The campaign covered roughly 310,000 compounds. About 2,200 (0.71%) showed an effect of 50% or more. Effects have a minus sign here. This is one part of the list.

target: human ether-à-go-go-related gene (hERG) potassium channel (human, UniProt Q12809); assay: primary screen, population patch clamp on CHO cells stably expressing hERG
Sequence (Q12809 whole entry, looked up): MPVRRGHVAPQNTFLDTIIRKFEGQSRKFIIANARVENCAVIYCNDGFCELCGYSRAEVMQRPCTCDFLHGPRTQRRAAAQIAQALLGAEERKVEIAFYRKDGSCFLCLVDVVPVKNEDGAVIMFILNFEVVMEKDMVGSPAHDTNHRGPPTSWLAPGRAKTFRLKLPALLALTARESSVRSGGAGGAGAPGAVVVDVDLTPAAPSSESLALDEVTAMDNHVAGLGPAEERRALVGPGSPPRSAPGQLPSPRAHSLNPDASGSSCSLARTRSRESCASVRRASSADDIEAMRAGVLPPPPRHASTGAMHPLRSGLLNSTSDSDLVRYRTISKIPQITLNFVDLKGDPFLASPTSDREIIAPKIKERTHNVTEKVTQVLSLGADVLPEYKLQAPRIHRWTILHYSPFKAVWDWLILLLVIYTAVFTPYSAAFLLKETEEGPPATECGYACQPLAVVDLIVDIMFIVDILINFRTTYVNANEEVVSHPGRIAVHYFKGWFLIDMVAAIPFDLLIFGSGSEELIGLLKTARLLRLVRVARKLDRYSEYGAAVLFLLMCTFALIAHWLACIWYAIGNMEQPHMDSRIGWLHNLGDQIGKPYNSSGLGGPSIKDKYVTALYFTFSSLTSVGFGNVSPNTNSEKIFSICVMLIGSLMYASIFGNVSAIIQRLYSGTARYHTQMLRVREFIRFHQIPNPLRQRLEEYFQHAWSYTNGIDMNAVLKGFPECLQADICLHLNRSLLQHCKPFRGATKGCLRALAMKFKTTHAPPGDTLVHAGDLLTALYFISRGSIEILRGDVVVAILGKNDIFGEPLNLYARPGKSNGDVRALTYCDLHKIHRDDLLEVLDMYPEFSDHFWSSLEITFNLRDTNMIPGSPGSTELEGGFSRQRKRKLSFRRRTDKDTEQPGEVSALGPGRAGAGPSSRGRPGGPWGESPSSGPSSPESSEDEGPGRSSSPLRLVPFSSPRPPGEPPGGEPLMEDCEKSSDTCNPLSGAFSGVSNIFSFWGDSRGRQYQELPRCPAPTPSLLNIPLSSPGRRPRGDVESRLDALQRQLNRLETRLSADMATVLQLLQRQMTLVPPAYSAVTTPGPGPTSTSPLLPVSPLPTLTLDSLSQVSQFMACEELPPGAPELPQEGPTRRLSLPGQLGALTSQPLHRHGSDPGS

Structure (SMILES) | hERG current change (%, negative = inhibition) at 1uM [%]
Cc1cccc(C)c1NC(=O)CN(C)C(=O)C1CC(=O)N(c2cccc3ccccc23)C1 (stereo not drawn) | 8.8
Cc1cc(=O)n2nc(N3CCC(C(=O)NCc4ccccc4)CC3)sc2n1 | 14.7
O=C(c1ccc(C(=O)N2CCCc3ccccc32)s1)N1CCCc2ccccc21 | 5.87
COc1ccc(-c2c3c(cc(C)[n+]2[O-])oc2ccc(OC)cc23)cc1 | 10.3
COc1cc(/C=C/C(=O)OCC(=O)Nc2ccc3c(c2)OCCO3)ccc1OCC#N | 8.93
NC(=O)C1=C[C@H](C2CCCCC2)C[C@H](OCc2ccc(CO)cc2)O1 | 11.9
CCN(CC)CCN(Cc1cc2cc(C)c(C)cc2[nH]c1=O)C(=S)NCc1ccco1 | -0.139
Clc1cccc(-c2nnc(SCc3nc4ccccc4[nH]3)n2Cc2ccco2)c1 | -0.558
COc1ccc(/C=N/Nc2nc(NCc3ccco3)nc(Nc3ccc(OC)cc3)n2)cc1 | 2.98
CCN(CC)c1ccc(S(=O)(=O)N2CCOCC2)cc1NC(=O)CSc1nnc(N)s1 | 1.84
Cc1cccnc1NC(=O)CCc1nnc2ccc(NCc3ccco3)nn12 | 14.6
Cc1ccc(N(C(=O)c2ccc(S(=O)(=O)N3CCOCC3)cc2)C2C=CS(=O)(=O)C2)cc1C (stereo not drawn) | 13.8
COc1cc(/C=N/NC(=O)c2ccc(C)nc2)cc([N+](=O)[O-])c1O | 5.44
COC(=O)Cn1cnc2c(cnn2-c2ccc(C)cc2)c1=O | 12.3
CCOc1ccc(C2/C(=C(/O)c3ccc(F)cc3)C(=O)C(=O)N2CCCN(C)C)cc1 (stereo not drawn) | 15.6
CC12CCC(C(=O)N3CCCc4ccccc43)(CC1=O)C2(C)C (stereo not drawn) | 13.3
CCOc1ccccc1-n1nnnc1SCC(=O)O | -1.44
O=C(CCC1CCCC1)Nc1nnc(-c2ccc3c(c2)OCO3)s1 | 9.9
Cc1ccc2nc(NC(=O)c3ccc4c(c3)OCO4)sc2c1 | 8.82
NS(=O)(=O)c1ccc(CCNC(=O)C2COc3ccccc3O2)cc1 (stereo not drawn) | 7.48
CCN1C(=O)[C@@H]2[C@@H](c3ccc(SC4CCCCC4)cc3)N3CCC[C@@]3(C(=O)OC)[C@@H]2C1=O.O=C(O)C(F)(F)F | 17.8

Structure (SMILES) | hERG current change (%, negative = inhibition) at 1uM [%]
Cc1cc2[nH]c(=O)c(=O)[nH]c2cc1S(=O)(=O)Nc1cccc(C)c1C | 15.2
COc1ccc(C(C(=O)NC2CCCCC2)N(C(=O)Cc2c[nH]c3ccccc23)c2ccccc2C)cc1OC (stereo not drawn) | 9.07
Cc1ccc2cc3cc(C(=O)N(CC(=O)NC4CCCC4)c4cccc(C)c4C)sc3nc2c1 | 3.16
O=c1[nH]nc(-c2ccc(NCCCO)c([N+](=O)[O-])c2)c2ccccc12 | 7.15
Cc1ccccc1CNC(=O)/C=C\C(=O)O | 1.78
Cc1cc(Nc2ccc(C)c(C)c2)n2nc(C)nc2n1 | -9.51
COc1ccccc1CN1CC(C(=O)NCc2c(F)ccc(C)c2F)CCC1=O (stereo not drawn) | 7.48
Cn1c(SCC(=O)N2CCOCC2)nc2c(c1=O)SCC2 | 14.4
Cc1ccc2nc(N/N=C/c3ccccc3F)nc(-c3ccccc3)c2c1 | 7.9
O=C(Oc1c(CN2CCOCC2)cc(Cl)c2cccnc12)c1cccs1 | 9.85
Cn1c2ccccc2c2nnc(NN)nc21 | 15.6
Cc1ccc(OCC(=O)Nc2ccc(S(=O)(=O)N(C)C3CCN(C)CC3)cc2)c(C)c1 | 8.9
COc1ccccc1N1CCN(C(=O)CCCCCn2c(=O)[nH]c3ccsc3c2=O)CC1 | 1.14
CCOc1ccc(NC(=O)CN(C)C(=O)c2ccccc2OCc2cccc(C)c2)cc1OCC | 12
CCC(=O)Nc1cccc(NC(=O)CSc2nc3c(c(=O)n(C)c(=O)n3C)n2C)c1 | 17.4
O=P(NS(=O)(=O)c1ccc(Br)cc1)(Oc1ccccc1)Oc1ccccc1 | 16.2
COc1ccc(CCNC(=O)c2cc3sccc3n2C)cc1OC | 10.5
O=C(CSc1n[nH]c(-c2cccnc2)n1)Nc1ccccc1[N+](=O)[O-] | 11.9
CC(C)(C)NC(=O)NC(=O)CN1CCN(c2ccccc2)CC1 | -3.2
CCCC(=O)Nc1ccc(NC(=O)c2ccccc2OC)cn1 | 3.81
Cc1cc([N+](=O)[O-])ccc1NC(=O)Nc1ccccc1F | 13
